Data: publication PMC6759578
These are yes or no findings as the source states them, for the method shown. Binding seen in cells or lysates may run through a third protein.

Sequences of proteins named here, by UniProt entry; tags and fusion partners are left off.
UniProt Q8IUC6: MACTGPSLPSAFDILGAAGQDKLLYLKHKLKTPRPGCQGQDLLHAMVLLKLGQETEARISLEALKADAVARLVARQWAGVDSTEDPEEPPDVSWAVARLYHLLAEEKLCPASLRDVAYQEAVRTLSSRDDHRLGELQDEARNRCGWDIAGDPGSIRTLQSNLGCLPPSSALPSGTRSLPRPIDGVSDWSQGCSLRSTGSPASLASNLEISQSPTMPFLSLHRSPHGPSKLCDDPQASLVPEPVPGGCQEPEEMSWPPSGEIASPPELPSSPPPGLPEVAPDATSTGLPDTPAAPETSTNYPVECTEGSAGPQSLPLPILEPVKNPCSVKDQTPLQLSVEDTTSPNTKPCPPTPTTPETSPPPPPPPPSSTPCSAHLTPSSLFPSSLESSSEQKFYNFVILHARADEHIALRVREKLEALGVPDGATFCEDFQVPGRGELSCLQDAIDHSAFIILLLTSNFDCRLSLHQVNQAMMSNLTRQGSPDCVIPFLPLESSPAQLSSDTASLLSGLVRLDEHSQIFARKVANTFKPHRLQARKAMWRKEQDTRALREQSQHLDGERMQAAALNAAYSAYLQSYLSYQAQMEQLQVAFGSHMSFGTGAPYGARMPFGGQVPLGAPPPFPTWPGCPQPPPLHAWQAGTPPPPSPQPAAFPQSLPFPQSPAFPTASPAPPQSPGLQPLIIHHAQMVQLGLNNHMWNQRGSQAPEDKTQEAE
UniProt Q7Z434: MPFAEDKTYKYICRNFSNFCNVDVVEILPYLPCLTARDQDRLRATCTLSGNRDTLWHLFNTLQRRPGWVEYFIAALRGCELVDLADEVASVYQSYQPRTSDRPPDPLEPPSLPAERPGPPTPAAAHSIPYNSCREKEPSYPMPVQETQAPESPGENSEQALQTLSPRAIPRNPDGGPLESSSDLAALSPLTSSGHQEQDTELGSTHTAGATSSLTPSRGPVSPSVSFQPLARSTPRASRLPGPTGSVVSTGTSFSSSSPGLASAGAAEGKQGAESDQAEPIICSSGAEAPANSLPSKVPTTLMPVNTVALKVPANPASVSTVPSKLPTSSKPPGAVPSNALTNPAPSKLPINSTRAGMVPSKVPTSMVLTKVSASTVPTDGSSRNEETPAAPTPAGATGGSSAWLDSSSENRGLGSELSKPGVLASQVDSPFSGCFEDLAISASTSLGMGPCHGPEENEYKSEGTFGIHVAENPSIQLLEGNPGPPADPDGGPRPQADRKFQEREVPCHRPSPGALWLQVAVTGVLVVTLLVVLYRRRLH

Biological target: FLAG-tagged TRIF (expressed in A549 cells) (UniProt Q8IUC6)
Assay: co-IP; A549 cells transfected with FLAG-tagged TRIF for 24 h, with or without poly(I:C) stimulation; anti-FLAG and Protein G beads; blotted with DDX23 and MAVS antibodies

binding: no binding
Substance: endogenous MAVS (from UniProt Q7Z434 1-540)
